# About 11,000 (3.5%) of roughly 310,000 compounds were called active. The inconclusive results got no clear call from the source; some entries with a clear call stand among them for comparison. The call rests on the fitted dose curve; in most records, active means well fitted inhibition curve with a large enough effect; inconclusive means small, poorly fitted or top-dose-only effect, or effect the other way; inactive means flat fitted curve, though single readings scatter. No potency is given beside an inconclusive call; the fits are too rough.
# Experiment: VP16 counterscreen qHTS for inhibitors of ROR gamma transcriptional activity;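 further: Gal4-VP16 expression switched on by copper sulfate through the metallothionein promoter; nearly all actives have a fitted effect of over 50% in size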
# Details: Drosophila S2 Gal4-VP16 UAS-luciferase, luminescence, 20 h; series mostly up to 53.6 µM
# Potency means the concentration at half of the fitted maximal effect; tags describe the fitted curve by direction and shape.
row,Compound,Potency
1,CC(=O)c1cn(CC(=O)Nc2ccc(C)cc2C)c2ccccc12,"inconclusive [inhibitor, single point]"
2,O=C1COc2ccc(N3C(=O)C=CC3=O)cc2N1,active: 10 µM
3,COc1ccc(Oc2c(-c3ccc(O)cc3O)n[nH]c2C)cc1,inactive
4,Nc1ccccc1SCC(=O)Nc1ccc(N2CCOCC2)cc1,inactive
5,O=C(CSc1n[nH]c(-c2ccncc2)n1)Nc1ccccc1C(F)(F)F,inactive
6,COc1ccccc1Nc1nc(C)cc(C)c1C(N)=O,inactive
7,CC(=O)c1c(C)oc2ccc(N(C(C)=O)S(=O)(=O)c3ccc(Cl)c([N+](=O)[O-])c3)cc12,"inconclusive [inhibitor, partial curve]"
8,C/C(=N/NC(=O)c1ccccn1)c1ccco1,"inconclusive [inhibitor, partial curve]"
9,O=C(Nc1ccccc1Cl)NC1(C(=O)N2CCOCC2)CCCCC1,"inconclusive [inhibitor, single point]"
10,C=CC(C)(C)c1cc2cc3ccoc3cc2oc1=O,"inconclusive [inhibitor, single point]"
11,O=C(NOC(=O)c1ccccc1F)c1ccc(OC(F)F)cc1,"inconclusive [inhibitor, single point]"
12,CCc1ccc2c(c1)C1(NN=C(c3cccc4ccccc34)S1)C(=O)N2 (stereo not given),active: 2.82 µM
13,Cc1nc2ccc(NS(=O)(=O)c3ccc4c(c3)OCCO4)cc2s1,active: 8.91 µM
14,O=c1[nH]c(-c2ccccn2)nc2ccccc12,active: 7.08 µM
15,Cc1onc(-c2ccccc2Cl)c1C(=O)Oc1cccc2cccnc12,"inconclusive [inhibitor, single point]"
16,COc1ccc(-c2n[nH]c(=S)nc2-c2ccc(OC)cc2)cc1,"inconclusive [inhibitor, single point]"
17,CC(=O)Nc1ccc(SCC(=O)c2cc(C)n(Cc3cccs3)c2C)cc1,"inconclusive [inhibitor, partial curve]"
18,NS(=O)(=O)c1ccc(-c2ccc(/C=N/NC(=O)c3ccccc3O)o2)cc1,active: 17.8 µM
19,Cc1ccc(S(=O)(=O)N(C)c2c(C)ccc(S(=O)(=O)N3CCN(C)CC3)c2C)cc1,"inconclusive [activator, single point]"
20,Cc1cc(C(=O)COC(=O)c2ccc(CO)cc2)c(C)n1CC1COc2ccccc2O1 (stereo not given),"inconclusive [inhibitor, single point]"
21,O=C1c2ccccc2C(=O)N1OS(=O)(=O)c1ccccc1,active: 15.8 µM
22,O=[N+]([O-])c1ccc(OCc2n[nH]c(=S)n2-c2ccccc2)cc1,"inconclusive [inhibitor, partial curve]"
23,CC(=O)c1cccc(NC(=S)NC(=O)c2ccc(C)cc2Cl)c1,active: 12.6 µM
24,N=c1oc2ccc3ccccc3c2cc1C(N)=S,"inconclusive [inhibitor, single point]"
25,Cc1noc(C)c1C(=O)Nc1nnc(-c2ccccc2)s1,"inconclusive [inhibitor, single point]"

row,Compound,Potency
1,COc1cccc(/C=N/n2c(C)nc3ccccc32)c1OC,active: 8.91 µM
2,O=C(COc1ccc2ccccc2c1)Nc1ccncc1,active: 12.6 µM
3,Cc1ccc(O)c(C2=Nc3ccccc3N=C(c3cccs3)C2)c1,"inconclusive [inhibitor, single point]"
4,CCCN(CC(=O)Nc1ccccc1C)C(=O)c1cccc(S(=O)(=O)N2CCc3ccccc3C2)c1,inactive
5,c1ccc(-c2cnc(CSc3ncnc4sccc34)o2)cc1,"inconclusive [inhibitor, single point]"
6,CCc1nnc(NC(=O)c2ccc(S(=O)(=O)N(C)c3ccccc3)cc2)o1,active: 0.562 µM
7,CCOC(=O)c1sc(-c2ccccc2)cc1NC(=O)Nc1ccccc1,"inconclusive [inhibitor, single point]"
8,Cc1nnc(SCC(=O)N2CCCC(C(=O)c3ccc(Cl)cc3)C2)o1 (stereo not given),inactive
9,O=[N+]([O-])c1cnc(Nc2ccccc2)nc1Nc1ccccc1,inactive
10,COc1cc(NC(=O)Nc2cccc3cccnc23)cc(OC)c1OC,"inconclusive [activator, partial curve]"
11,Cc1nn(Cc2c(Cl)cccc2Cl)c(C)c1NC(=O)c1cn(-c2ccccc2)nc1-c1ccccc1,"inconclusive [inhibitor, full curve, poor fit]"
12,Cc1ccc(C(=O)/C=C/c2c[nH]c3ccccc23)cc1,inactive
13,CNC(=S)N(CCc1c(C)[nH]c2ccc(C)cc12)Cc1cccs1,"inconclusive [inhibitor, single point]"
14,COc1ccc(-c2nnc(NC(=O)c3ccc(F)cc3)o2)cc1,"inconclusive [inhibitor, full curve, poor fit]"
15,Cc1ccc2c(c1)N(C(=O)CCC(=O)NCc1cccc(Cl)c1)CC(C)O2 (stereo not given),inactive
16,COc1ccc(/C=C/C(=O)NC(=S)NN2CCCCC2c2cccnc2)cc1OC (stereo not given),active: 15.8 µM
17,CN(C)c1ccc(C(=O)OCC(=O)N2CCOCC2)cc1,"inconclusive [activator, partial curve]"
18,CCOC(=O)N1C/C(=C\c2ccccc2)C(=O)/C(=C/c2ccccc2)C1,"inconclusive [inhibitor, single point]"
19,CCNC(=S)N(CCc1c(C)[nH]c2ccc(Cl)cc12)Cc1cccnc1,inactive
20,C[C@]12CC[C@@H]3c4ccc(O[C@@H]5O[C@H](C(=O)O)[C@@H](O)[C@H](O)[C@H]5O)cc4CC[C@H]3[C@@H]1C[C@@H](O)[C@@H]2O,inactive
21,COc1cc(/C=C2\SC(=S)N(NS(=O)(=O)c3ccccc3)C2=O)cc(OC)c1OC,"inconclusive [inhibitor, single point]"
22,C=CCN1CCN(C(c2ccccc2)c2nnnn2CCC(C)C)CC1 (stereo not given),inactive
23,COCCNC(=O)/C(C#N)=C/c1ccc(O)cc1,"inconclusive [activator, full curve, poor fit]"
24,COc1ccc(-c2nn(-c3ccccc3)cc2/C=N/NC(=S)NC(C)C)cc1OC,active: 2.24 µM
25,OCc1cc(C(O)CNCCCCCCOCCCCc2ccccc2)ccc1O (stereo not given),"inconclusive [inhibitor, single point]"

row,Compound,Potency
1,c1cnc2c(Oc3ncnc4sccc34)cccc2c1,"inconclusive [activator, single point]"
2,O=C(NCCN1CCOCC1)c1cc(-c2ccc(Cl)c(Cl)c2)on1,inactive
3,O=C(NC(c1cccnc1)C(F)(F)F)c1cc(COc2ccc3c(c2)CCCC3)on1 (stereo not given),active: 7.08 µM
4,Cc1ccc(-c2onc3ccc(C=O)cc23)cc1,inactive
5,COc1ccc(COC(=O)C2=C(C)NC(=O)NC2c2cccc(Br)c2)cc1 (stereo not given),"inconclusive [inhibitor, single point]"
6,S=C(Nc1ccc(Br)cc1)N1CCN(c2ccccn2)CC1,"inconclusive [inhibitor, single point]"
7,Cc1nc(N)nc(N)c1/C=C/C(C)(C)c1ccc(Cl)cc1,"inconclusive [inhibitor, single point]"
8,COc1cccc(-c2nnc(-c3ccc(C)o3)o2)c1,"inconclusive [inhibitor, single point]"
9,Cc1ccsc1/C=N/Nc1nc(=O)[nH]nc1C,active: 10 µM
10,Cc1cc(CSCc2ccc(Cl)cc2)no1,inactive
11,COc1ccc(C(=O)Nc2nc3ccc4nc(C)sc4c3s2)cc1,inactive
12,Cc1ccccc1-c1n[nH]c(=S)n1/N=C/c1c(C)nn(-c2ccccc2)c1C,"inconclusive [inhibitor, full curve]"
13,CCOC(=O)C1CCN(Cc2cc(=O)oc3c(C)c(C)ccc23)CC1,"inconclusive [inhibitor, partial curve]"
14,Cc1noc(C)c1-c1nc(NCc2ccccc2)c2ccccc2n1,"inconclusive [inhibitor, single point]"
15,CCN(CC)CCN(C(=O)c1cc2c(ccc3ccccc32)oc1=O)c1nc2cc3c(cc2s1)OCCO3,"inconclusive [inhibitor, single point]"
16,O=C(Nc1ccc(Cl)c(C(F)(F)F)c1)C1CCCN(S(=O)(=O)c2cnc[nH]2)C1 (stereo not given),"inconclusive [inhibitor, single point]"
17,CC1CCN(C2CCN(C(=O)c3ccccc3F)CC2)CC1,inactive
18,Cc1ccc(-c2nsc(SCC(=O)Nc3ccc4c(c3)OCO4)n2)cc1,"inconclusive [inhibitor, single point]"
19,CCCCCCCN1C2=NCCCN2c2ccccc21,"inconclusive [inhibitor, single point]"
20,Cc1ccccc1C(=O)O/N=C1\CCS(=O)(=O)c2sccc21,"inconclusive [activator, single point]"
21,CCOC(=O)N1CCC(NC(=O)C2CCN(C(=O)N3CC(C)Oc4ccc(C)cc43)CC2)CC1 (stereo not given),inactive
22,CN(C)c1ccc(N=Cc2ccco2)cc1,"inconclusive [inhibitor, single point]"
23,COc1cc2c(cc1OC)C(c1ccncc1)CC(=O)N2 (stereo not given),"inconclusive [activator, partial curve, poor fit]"
24,CCc1ccc(C(=O)NC(=S)Nc2ccc3c(c2)OCCO3)cc1,active: 7.08 µM
25,O=C(NCCCn1ccnc1)/C(=C/c1cccs1)NC(=O)c1ccco1,inactive

# Source: PubChem BioAssay AID2546 (National Center for Advancing Translational Sciences (NCATS), 2010)
